Our source for the activation values is PubChem BioAssay AID1346428 (National Center for Advancing Translational Sciences (NCATS), 2018).

Molecules are shown by their SMILES. The campaign covered roughly 48,000 compounds. About 1,200 (2.5%) were called active. Roughly 2% stayed inconclusive and do not appear here.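 The calls were made as follows: active = activation of at least 60% and not above a set upper limit (about 1 call in 100 departs from these limits); inconclusive = activation of 40% to 60%, or above that upper limit; inactive = activation under 40%.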 The list shows a part of the results.

Chain of UniProt O75388 (O75388 whole entry, looked up): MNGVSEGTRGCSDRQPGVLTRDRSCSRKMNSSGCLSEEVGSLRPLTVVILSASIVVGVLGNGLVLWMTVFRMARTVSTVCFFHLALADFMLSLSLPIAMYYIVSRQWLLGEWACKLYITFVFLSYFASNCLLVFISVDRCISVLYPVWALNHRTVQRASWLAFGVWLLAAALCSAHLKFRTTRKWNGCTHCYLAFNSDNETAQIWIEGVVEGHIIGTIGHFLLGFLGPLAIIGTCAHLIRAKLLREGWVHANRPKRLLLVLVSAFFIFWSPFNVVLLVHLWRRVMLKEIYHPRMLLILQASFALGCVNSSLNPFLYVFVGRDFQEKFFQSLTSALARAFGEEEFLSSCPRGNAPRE

The assay concerns the target Probable G-protein coupled receptor 32 (Homo sapiens) (UniProt O75388). Kind of assay: qHTS for Agonists of Human Resolvin D1 Receptor DRV1. Also: 0% is about no effect. The following applies: CHO-K1 GPR32 beta-arrestin PathHunter luminescence, 90 min; at 76.9 µM; stronger effect = higher value; zero percent set by DMSO-only wells. The essentials:
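Readings come from a cell-based beta-arrestin complementation format: CHO-K1 GPR32 stable cells (2,500/well) treated 90 min with compounds, then beta-Gal substrate added for 1 h before chemiluminescence imaging.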
Consider `COc1ccc(C(=O)c2sc(Nc3cc(Cl)ccc3C)nc2N)cc1OC`, for which the activation was inactive: 5.49%. In the case of `COC(=O)c1cc2occc2n1Cc1nc(-c2cccc(Br)c2)oc1C` it was inactive: -12.5%; in that of `CCCOc1cccc(C2c3c(oc4ccc(F)cc4c3=O)C(=O)N2Cc2ccc3c(c2)OCO3)c1` (stereo not drawn), inactive: 1.24%; in that of `Cc1nc(-n2nc(C)c(Cc3ccc4c(c3)OCO4)c2C)sc1C(=O)Nc1ccc(Cl)cc1`, inactive: -6.19%. As to `Cc1ccc2nc(N3CCN(c4ccccc4F)CC3)c3nnnn3c2c1`, the activation was inactive: 3.06%.

As to `COc1ccc(CC(=O)NCc2ccc3c(c2)CCN3C(=O)c2cccc(C)c2)cc1`, the activation was inactive: -13.4%.

With `Cc1ccc(-n2cnc3cc(C(=O)NCc4ccccc4Cl)ccc32)c(C)c1`, the activation is inactive: -16.5%. In the case of `O=C(O)C(Cc1cc(I)c(O)c(I)c1)c1ccccc1` (stereo not drawn) it was inactive: 16.5%.

For the compound `CCCCN(Cc1ccco1)C(=O)Cn1ncc2c([nH]c3ccccc32)c1=O`, the activation was inactive: 6.33%. In the case of `CN1CCSc2ccc(C(=O)NCc3ccccc3)cc21` it was inactive: -5.2%; in that of `O=C(c1ccco1)n1nc(-c2ccc(Cl)cc2)nc1NCc1ccc(F)cc1`, inactive: -0.765%; in that of `Cc1cccc(Cn2cccc2CNS(=O)(=O)c2ccc(C)c(C)c2)c1`, inactive: -9.97%. In the case of `Cc1ccc(NC(=O)Cn2c(=O)n(CCC(=O)NCc3ccccc3Cl)c(=O)c3ccccc32)c(C)c1` it was inactive: -0.352%.

With `Cc1cccc(NS(=O)(=O)c2ccc3nc(-c4ccccc4)[nH]c3c2)c1C`, the activation was active: 86.5%.

Regarding `CCOC(=O)c1scc(-c2ccc(C)cc2)c1S(=O)(=O)Nc1ccc(OC)c(Cl)c1`, the activation is inactive: -23.7%. In the case of `COc1ccc(C2C(C(=O)Nc3ccccc3)=C(C)Nc3nc(-c4ccccc4Cl)nn32)cc1OC` (stereo not drawn) it was inactive: -6.52%; in that of `CCOCCCNc1nc2cc(OC)c(OC)cc2c2nc(-c3ccccc3)nn12`, inactive: 19%. Next, `O=C(Nc1ccc2nc(SCCOc3ccccc3)sc2c1)c1ccc2c(c1)OCO2`: inactive: 22.4%; `Clc1ccccc1Nc1ncnc2c1nc1n2CCCCC1`: inactive: 49.1%. Take `Cc1cccc(Cn2c(=O)n(CC3CCC(C(=O)N4CCC(C)CC4)CC3)c(=O)c3sccc32)c1` (stereo not drawn): the activation is inactive: -5.83%. In the case of `O=C(CSc1cn(CC(=O)N2CCCC2)c2ccccc12)Nc1ccccc1C(F)(F)F` it was inactive: -21.7%.

For `COc1cc2[nH]c(=O)n(CCCCCC(=O)N3CCN(c4ccc(Cl)cc4)CC3)c(=O)c2cc1OC`, the activation was inactive: -1.71%.

Take `Cc1nc2cc(-c3ccccc3)nn2c(C)c1CCC(=O)NCc1cccc(Cl)c1`: the activation was inactive: 22.6%.
